Measurements reported in article PMC12136788.
The other results are listed elsewhere or left out.

T1: UNK ZnF1-3 (human, UniProt Q9C0B0 31-174)
T1 sequence: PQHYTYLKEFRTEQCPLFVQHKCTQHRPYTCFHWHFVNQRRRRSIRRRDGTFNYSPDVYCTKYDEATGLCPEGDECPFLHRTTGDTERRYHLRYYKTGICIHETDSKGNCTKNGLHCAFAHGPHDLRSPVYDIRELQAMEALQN

B1: chr12:93870747:93870748:+_ENSG00000198015_ENST00000552217|hu_mus|motif|central (ssRNA)
RNA: GGGAGUUCUACAGUCCGACGAUCGUCCACCUGGCAAUUGUAGUCAUCCGGAAGAGAAGAGUAUGUGGAUUUGUGACAAGCACGGGACAAAGCUCCGUUUUGGAUUGGAAGUAAAUGCUUCCAGAUAGUUCUGUUUGAUAUCGCCAACAGAGGAUUGAGCAUCA
B2: chr11:116399779:116399780:-_ENSMUSG00000020802_ENSMUST00000082152|mus_mus|motif|central (ssRNA)
RNA: GGGAGUUCUACAGUCCGACGAUCAGGGCUGCAGCCUCUCCUGGUGUCCUAUCCUCUCUUAGAGAGUAAGUUCAAUAGGCCGGAGGGCUAUAACGCACUGGCAGGCCAGAGCCAGCCACAGCAGCCACAGCUCCGAGAUGGAGGCAACAGAGGAUUGAGCAUCA
B3: chr5:92853364:92853365:-_ENSMUSG00000034826_ENSMUST00000038514|mus_mus|FALSE|FALSE (ssRNA)
RNA: GGGAGUUCUACAGUCCGACGAUCGUUUUGUAAGAGCUGCUUGAUCUGAGCGGGAGACAGCUCUGUCCUGGUCAUAGAAAGGGUCACCCCAAGCUGCUGCAGCUGGGCUUUAAUGUUGGCUUGCUCAAAGUGGGCAUACAGUGUCAACAGAGGAUUGAGCAUCA
B4: chr5:37680062:37680063:+_ENSMUSG00000029121_ENSMUST00000031004|mus_hu|mus_mus_mus_hu_False|58_58 (ssRNA)
RNA: GGGAGUUCUACAGUCCGACGAUCUUUGGGUGUAGCUGGUACCUCGUACACAGGACCGUCAUACAUGCCCCUGGAAACACUAUGCAAUCCAAAAACCUUAUUCCUGAUUUUGACGCGCUGGUACAGGUGCUCCGGGAACGCCUUCAACAGAGGAUUGAGCAUCA
B5: 56981117_56985166_585_CDS_ENSMUSG00000045589_ENSMUST00000053681|mouse|control|control (ssRNA)
RNA: GGGAGUUCUACAGUCCGACGAUCGAAGUGCUGUAUGCGGACUCUGCCAUUGUCAUCAUGGACGCAGGCCAUGACAUCGUCACCACCCAUCUUUUUGUCUGAAGAGAAUCCAACCGCGACCCAACCAUCUGUGUCUGCACUCAGCAACAGAGGAUUGAGCAUCA
B6: chr12:105536279:105536280:+_ENSG00000136051_ENST00000332180|hu_mus|hu_hu_hu_mus_True|38_78 (ssRNA)
RNA: GGGAGUUCUACAGUCCGACGAUCAGCACUGAACAUGUAAUGUAAUCUGGCUGCAUCAACAGCAUUUUCAUAUACAUCAUCUAAAUAAAUCGGGAAGACAGCUCGAUGCCAGUAUAAAAAACAGCAGUCACACUGUGCUUGGACCAACAGAGGAUUGAGCAUCA
B7: 112367391_112373583_1708_CDS_ENSMUSG00000031731_ENSMUST00000093157|mouse|control|control (ssRNA)
RNA: GGGAGUUCUACAGUCCGACGAUCCACACUGUUGGUUAUUAACUGAAUCAAGUUAGGAACUGCAUCAUCGCGAACAUAACUUCCUGCCGUUGUCAAGACACGCAUAAUUGUAUCUAUAUGCCACCGUUUGGAAGGUGCGUACUUCAACAGAGGAUUGAGCAUCA
B8: 168281138_168289955_895_3pUTR_ENSG00000130396_ENST00000400822|human|control|control (ssRNA)
RNA: GGGAGUUCUACAGUCCGACGAUCCAAGAAUAAUUUCUUUAGCACCCUUUUCAUCAGAAUGCUGGGCUCCAGGAGGAAGCAUAACCCGGGCGAUGCAGUAAUCCUUAGGGUUUUCUUUUUCCAGACCAUACUUCUCUAAAGCUUCAACAGAGGAUUGAGCAUCA
B9: chr2:179515052:179515053:+_ENSMUSG00000000305_ENSMUST00000000314|mus_hu|mus_mus_mus_hu_False|78_78 (ssRNA)
RNA: GGGAGUUCUACAGUCCGACGAUCGCUGUCCCAUGCAGUCACCGUGAACGCCACCUGCUCUGAGGGGACCUGCAGCUCCCGGGUGGCGAAGACUGUCCCAUCUGCCCCAACUUUGAAGUCCAUGCUGUUGGUCUCAUAUUGUGUCAACAGAGGAUUGAGCAUCA
B10: chr17:53623224:53623225:+_ENSMUSG00000017831_ENSMUST00000017975|perfect_dup|FALSE|FALSE (ssRNA)
RNA: GGGAGUUCUACAGUCCGACGAUCGGCCCGUUGGGUCUUGUUGCGCCUCGACUAGCCAUGUCCAAAUUUGAAAUAAGUCCCUAAUUUCAGACUCUUCAAUGAACUUCCAGAAUUCAAGGGGCCAAUAUUCUUCUUUCUGGAGGUCAACAGAGGAUUGAGCAUCA
B11: chr4:115894766:115894767:+_ENSMUSG00000028698_ENSMUST00000030464|mus_hu|mus_mus_mus_hu_True|68_108 (ssRNA)
RNA: GGGAGUUCUACAGUCCGACGAUCUUCACACGGAAAUUGUACUUCGGGUUUUCCAACGGCCAGUACCGUCCAGCCAAAACUACCCGAACAGGGUCCUCCCCCUCUCUCCUACAGAACACAACAAAAUGCCCCCGAACUUUCAAGCAACAGAGGAUUGAGCAUCA
B12: chr13:42873775:42873776:+_ENSG00000023516_ENST00000025301|hu_hu|FALSE|FALSE (ssRNA)
RNA: GGGAGUUCUACAGUCCGACGAUCAGAAGACGAAAAAAAUGUUUUCUGUAAAUCACUAUCUUUAUCUGAAGCAUUAGAUGACCUAUAGAAACUCCUUUGGGUCCAAGGCUCUGAAAUUGAUGUUGUGACUGAAGUUUUCACAGACAACAGAGGAUUGAGCAUCA
B13: chr2:14037654:14037655:+_ENSMUSG00000026718_ENSMUST00000102960|mus_mus|FALSE|FALSE (ssRNA)
RNA: GGGAGUUCUACAGUCCGACGAUCAUGACCCUUAUUUAAUACAUUGCUUACUUCACUAGCAAAGUCUCUUGAACAUACUUCUAAGUGAAAAAUUUUGCCACAGUUUGAUACACAUGCUCCCAGAAGAGUUAAGGCUUGCAUAGCCAACAGAGGAUUGAGCAUCA
B14: 49510474_49510594_1284_3pUTR_ENSG00000101126_ENST00000396029|human|control|control (ssRNA)
RNA: GGGAGUUCUACAGUCCGACGAUCUUUGUGUGCCCAAUCAUGGCAGUGACCUGAUAGCCUAUACGUUCAUGGUCUUCGAUGACAUGCUGUACCAAAGCUUCAUAGGACUUUGGCAUGAAAAGGCAUCGCUUGCAGUGAAUACUACAACAGAGGAUUGAGCAUCA

Target: T1, UNK ZnF1-3
Experiment: nsRBNS (natural sequence RNA bind-n-seq); RBNS binding buffer (assumed for nsRBNS): 25 mM Tris pH 7.5, 150 mM KCl, 3 mM MgCl2, 0.01% Triton X-100, 500 ug/ml BSA, 20 U/ml SUPERase-In, 4 C; UNK is unkempt and MSI1 is Musashi-1; names of the RNAs are library labels; protein concentration not given here; high values mean tight binding

| Binder | binding signal [enrichment R] |
| --- | --- |
| B1 | 1.22 |
| B2 | 0.726 |
| B3 | 0.894 |
| B4 | 0.601 |
| B5 | 0.777 |
| B6 | 2.84 |
| B7 | 0.765 |
| B8 | 0.899 |
| B9 | 0.713 |
| B10 | 1.09 |
| B11 | 1.01 |
| B12 | 0.809 |
| B13 | 1.45 |
| B14 | 0.607 |
